Results reported in the BET-seq Pho4 binding data (Le et al. 2018).
Some of the results follow. The energies were worked out here from pooled read counts, against the library average; single values are noisy.

Target: T1, Pho4 (S. cerevisiae) (UniProt P07270)
T1 sequence: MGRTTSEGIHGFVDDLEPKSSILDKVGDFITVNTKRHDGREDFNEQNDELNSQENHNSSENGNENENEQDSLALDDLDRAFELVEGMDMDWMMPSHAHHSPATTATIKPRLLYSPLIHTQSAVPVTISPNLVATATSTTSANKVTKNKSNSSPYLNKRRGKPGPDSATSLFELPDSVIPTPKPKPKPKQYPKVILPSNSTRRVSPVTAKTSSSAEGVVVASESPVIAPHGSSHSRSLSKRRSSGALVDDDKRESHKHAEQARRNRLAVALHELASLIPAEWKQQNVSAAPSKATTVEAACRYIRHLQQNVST
Assay: relative binding free energy (BET-seq); higher = weaker binding
Conditions: reference: library average

Relative binding free energy, 0.37 kcal/mol:
GTTTTCACGTGGAGTC

Relative binding free energy, 0.05 kcal/mol:
CATGTCACGTGGTCTT, TGGTACACGTGGTGGT, GTTATCACGTGGGGGA, TGCCGCACGTGAGGTT, CTGGACACGTGTGGCG, ATACGCACGTGAGGTT

Relative binding free energy, -0.12 kcal/mol:
CGCAGCACGTGCGGGG, CTAATCACGTGGGGGT, TATGGCACGTGGGGTT

Relative binding free energy, 0.19 kcal/mol:
CGTGTCACGTGTGACT, GGCATCACGTGTGGCT, TTGATCACGTGACGTT, TGAGGCACGTGAAAGG, AAGGTCACGTGTGGCC, TTTCTCACGTGGTGTC

Relative binding free energy, 0.06 kcal/mol:
GGAGTCACGTGGTCGA, AGGTACACGTGTATTA, TGTATCACGTGCGTAG

Relative binding free energy, 0.25 kcal/mol:
TTAGACACGTGATGGC, TTTCTCACGTGTAGGC, GGACTCACGTGGGTCA, TGAACCACGTGAGGTT, TGGTTCACGTGTCTTG, TAGATCACGTGATGTA, GGAGACACGTGAGGAA

Relative binding free energy, 0.35 kcal/mol:
TCGTTCACGTGGTTCG, CTTTTCACGTGAGGAT

Relative binding free energy, -0.01 kcal/mol:
AAGTGCACGTGTTTTA

Relative binding free energy, 0.43 kcal/mol:
GTTTACACGTGAGGCG

Relative binding free energy, -0.03 kcal/mol:
TGTCGCACGTGTTGTA, AGAGACACGTGGAAGG, TTGGGCACGTGGTCTT, CGGTGCACGTGGGTTC, GGTTGCACGTGGCATA, AATTGCACGTGGGTCA

Relative binding free energy, 0 kcal/mol:
ATGGTCACGTGGCTGT, AGTAGCACGTGTGGAT, TGTATCACGTGCATAT, CTTCTCACGTGGGTGG

Relative binding free energy, 0.13 kcal/mol:
GTGGTCACGTGGTGTG, GTTTGCACGTGTTGTG, AGTTTCACGTGCGTGC, TTCAACACGTGATTGT, TAATGCACGTGAGGTC, TTGGTCACGTGGTCGG

Relative binding free energy, 0.17 kcal/mol:
TCTTTCACGTGTGGCT, AATTTCACGTGATTTT, ATGTACACGTGTGAGG, GTTGTCACGTGGTGTG

Relative binding free energy, 0.12 kcal/mol:
GGGGTCACGTGTTACA, TGGGTCACGTGTGCGG, CTTGTCACGTGGAAGT, GGATCCACGTGTTGTT, CGGTACACGTGTTTTT, GGGATCACGTGTCTGT, TTGGCCACGTGTTTTC

Relative binding free energy, 0.1 kcal/mol:
CGAATCACGTGGGAGT, AGGATCACGTGCGGTA, GGTTGCACGTGGAGTA, TTAAACACGTGGCGAT, GTGTTCACGTGTAAAG

Relative binding free energy, 0.04 kcal/mol:
TTACACACGTGGAGGT, TGATTCACGTGGGCGG, GGATGCACGTGGTTGT, ATATACACGTGATGAT

Relative binding free energy, -0.09 kcal/mol:
TATGCCACGTGGTAGA, CCGTGCACGTGTGTGT, TCCAGCACGTGGGTTT, GCATGCACGTGGGTGC

Relative binding free energy, -0.31 kcal/mol:
AAAGGCACGTGGTATG

Relative binding free energy, 0.15 kcal/mol:
AGATTCACGTGTTTAA, ACGTTCACGTGGCGTT, TGCATCACGTGTTGGG, AGTTACACGTGATTGG, GTATGCACGTGAGTAT

Relative binding free energy, -0.04 kcal/mol:
ACATGCACGTGTGGTA, TCGCTCACGTGGGGGA, TGAGTCACGTGGTGAC, TCTGTCACGTGGGGGA, GACGGCACGTGTGTGA, TATCGCACGTGTAGGA, TGTAGCACGTGGTTAT

Relative binding free energy, -0.23 kcal/mol:
GGGTGCACGTGGGTAG

Relative binding free energy, -0.17 kcal/mol:
ATGGCCACGTGTGTTG, TAGTGCACGTGGGTGT, GGGGACACGTGGCTGG, GGTGACACGTGGGGCC, CGTAACACGTGGGAGT

Relative binding free energy, -0.06 kcal/mol:
GGGGGCACGTGGTATA, CAGTGCACGTGTTGGG, CCTGTCACGTGGGGGT, TGACACACGTGTAGGT, GGAGACACGTGTTGTG, CTGGACACGTGGTGGG

Relative binding free energy, -0.08 kcal/mol:
GAGGGCACGTGGCAAG, AGGCGCACGTGTGTTT, TATTGCACGTGGCGAT, CATGGCACGTGGCGTT

Relative binding free energy, 0.3 kcal/mol:
AGGATCACGTGTAGTC

Relative binding free energy, -0.21 kcal/mol:
TGAGGCACGTGGTGAC, AGGTGCACGTGGCCGG, GTGGCCACGTGGTGCT

Relative binding free energy, 0.28 kcal/mol:
ACGTTCACGTGTAGTG, TAAGTCACGTGAGGGC

Relative binding free energy, -0.24 kcal/mol:
TATGGCACGTGGTCGT

Relative binding free energy, 0.22 kcal/mol:
GTGGGCACGTGAGGCG, GCTTACACGTGTTTTA

Relative binding free energy, -0.18 kcal/mol:
TGTGGCACGTGTTGCA, ATTAGCACGTGGTTGA

Relative binding free energy, 0.14 kcal/mol:
ACTGACACGTGTAGTT, AAGGGCACGTGAGAAT, GGGGTCACGTGTACAG, GAATGCACGTGTATGG, TTACTCACGTGTTGTA, AGCCTCACGTGTGGGG

Relative binding free energy, 0.23 kcal/mol:
TGGCTCACGTGGACGG, TTTCACACGTGTGCTT

Relative binding free energy, -0.11 kcal/mol:
TAGGTCACGTGGGTTA, AGATCCACGTGGGGGT

Relative binding free energy, 0.4 kcal/mol:
GATGTCACGTGATGGT, TGTTTCACGTGTCCTG, GAGTTCACGTGCGTTT

Relative binding free energy, 0.36 kcal/mol:
CTATTCACGTGATGGA

Relative binding free energy, -0.22 kcal/mol:
GGGGGCACGTGGTCCA, AGGAGCACGTGGGTGG

Relative binding free energy, 0.32 kcal/mol:
GGTTTCACGTGGCTTT, ATTTGCACGTGAAGGA

Relative binding free energy, 0.08 kcal/mol:
GATTGCACGTGGTGGT, TAGGGCACGTGAACGG

Relative binding free energy, 0.24 kcal/mol:
GCTTTCACGTGTATTA, TTGTTCACGTGTCGGT, GAGCTCACGTGCTGGT, TATTTCACGTGTCAGG, TTATTCACGTGTTGAA, TTTTTCACGTGTATGA

Relative binding free energy, 0.07 kcal/mol:
GGTTGCACGTGTCTCG, GGGGACACGTGGGAAA, TGCTTCACGTGTATAG, GGGGACACGTGACATG, GGTAGCACGTGACTTG

Relative binding free energy, 0.11 kcal/mol:
TACGTCACGTGGAGTT, AAAGACACGTGTGTTT, GTTTCCACGTGCTTGT, CGCGTCACGTGGAGTG, GTCTGCACGTGTGGAA

Relative binding free energy, -0.32 kcal/mol:
GGAAGCACGTGGGCAG

Relative binding free energy, 0.02 kcal/mol:
GTCAGCACGTGTGTGC, AGGTGCACGTGACGCG, GTGACCACGTGTTGGT, TACGACACGTGGTGGT, ATCGGCACGTGTGCAG, TTGACCACGTGTTTGT

Relative binding free energy, -0.02 kcal/mol:
GGATCCACGTGGCGGG, ATTATCACGTGGTGTG, ATTTGCACGTGTTTGA, AAAGTCACGTGGGAGT

Relative binding free energy, -0.13 kcal/mol:
GTGTGCACGTGCAGCG, GGGGGCACGTGGCGGT, CGGGGCACGTGCGGAA, TTAGGCACGTGTAGCA, AAGTGCACGTGGTGGA

Relative binding free energy, -0.1 kcal/mol:
AGCAGCACGTGGTTAG, GGATCCACGTGGGGTA, ATGGCCACGTGGATGG, ACTGGCACGTGTATGG, TTGGGCACGTGGACCG, GTGAGCACGTGTGTTG

Relative binding free energy, -0.07 kcal/mol:
TGTACCACGTGTATGG, TGTAGCACGTGGTGGC, AAATGCACGTGTTGGC, ATTGGCACGTGTGCCT

Relative binding free energy, -0.26 kcal/mol:
TTACGCACGTGGGAGG, CGGCGCACGTGGGGAG

Relative binding free energy, 0.2 kcal/mol:
GAATGCACGTGGTTTT, TTTCTCACGTGTTGTC, ATGTTCACGTGTATTA, TAATTCACGTGGTGAG, GGCTTCACGTGTTGTG, GGGTCCACGTGAATGT

Relative binding free energy, -0.3 kcal/mol:
ATAGGCACGTGCGGTA

Relative binding free energy, 0.16 kcal/mol:
AATGTCACGTGTATGC

Relative binding free energy, 0.09 kcal/mol:
AAGTACACGTGGGAGA, GCTTGCACGTGTAGTA, TGAGTCACGTGTAGCA

Relative binding free energy, -0.2 kcal/mol:
ATTGCCACGTGGTGAT, TCTAGCACGTGGGGTA

Relative binding free energy, 0.34 kcal/mol:
GGTTTCACGTGCGGGG, AGGTTCACGTGGAGCG, TGTTTCACGTGTATGA

Relative binding free energy, -0.14 kcal/mol:
CTTAGCACGTGGAGGG, TGGGACACGTGCGTGC, GTTAGCACGTGTTGTG, TTATGCACGTGGTCTG, AAGAGCACGTGGAAGG, GCCTGCACGTGGGTGG

Relative binding free energy, 0.38 kcal/mol:
AGATTCACGTGTAAGG

Relative binding free energy, 0.33 kcal/mol:
GGGTGCACGTGAACGA, AGTTCCACGTGAAGGG, TTAATCACGTGAGTTT

Relative binding free energy, -0.19 kcal/mol:
GAGGCCACGTGGGATG, TAAGGCACGTGGGAGC, ATGACCACGTGTTGTG, AGAAGCACGTGGCGGT

Relative binding free energy, 0.42 kcal/mol:
GAAGACACGTGATGGA

Relative binding free energy, -0.15 kcal/mol:
AGTGTCACGTGGGCCA, AGTGACACGTGGGAGT, TGAATCACGTGCGTGT, TGTTGCACGTGGGCAT, AGTATCACGTGGGGTA

Relative binding free energy, 0.29 kcal/mol:
TTCTTCACGTGATTTG

Relative binding free energy, -0.16 kcal/mol:
AGGTGCACGTGGGTCA

Relative binding free energy, 0.21 kcal/mol:
GGTATCACGTGTTATT, CTTTACACGTGTGGGC

Relative binding free energy, 0.45 kcal/mol:
AGGTTCACGTGAGAGG

Relative binding free energy, 0.27 kcal/mol:
GGTGTCACGTGAGTAC, GGGGACACGTGAGAGT, TGTTGCACGTGAGGCT, AGGCTCACGTGTTGGG

Relative binding free energy, 0.26 kcal/mol:
AGATACACGTGAGGGA, GTGGACACGTGTGTTC

Relative binding free energy, 0.03 kcal/mol:
TATTGCACGTGAGTGC, CCAGGCACGTGAGGGG, GAGTGCACGTGTTCTT

Relative binding free energy, -0.05 kcal/mol:
CAGGTCACGTGGGATG, TAAGGCACGTGTACGT, GGGGGCACGTGCGAAA, TTTAGCACGTGACGTT

Relative binding free energy, 0.01 kcal/mol:
CTTAGCACGTGCATGT, GGGGACACGTGGCCTT
